# Reference: PubChem BioAssay AID1347043 (National Center for Advancing Translational Sciences (NCATS), 2019)
# The whole screen tested about 76,000 compounds, of which about 1,900 (2.5%) were called active. Inconclusive means that the source gave no clear call. Such entries were picked first, then a sample of the others. Calls follow the shape of the dose curve; as a rule, active = well fitted inhibition curve with a large enough effect; inconclusive = small, poorly fitted or top-dose-only effect; inactive = flat fitted curve, though single readings scatter. Where the call is inconclusive, the potency comes from a doubtful curve fit.
# Target: Luciferin 4-monooxygenase (Photinus pyralis) (UniProt P08659)
# Experiment: Firefly luciferase inhibition profiling of diverse chemical library using quantitative high-throughput screening; also: nearly all actives have a fitted effect of over 65% in size
# Settings: purified P. pyralis luciferase, luminescence, biochemical; series mostly up to 115 µM
# Summary of the method: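 Inhibitors were tested against purified firefly luciferase in a biochemical, low-substrate format (both substrates at 10uM) and luminescence measured with a CCD imager.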
# Potency is read from the fitted curve at half-maximal effect; tags tell the direction and shape of the fitted curve.
# UniProt P08659, sequence (P08659 whole entry, looked up): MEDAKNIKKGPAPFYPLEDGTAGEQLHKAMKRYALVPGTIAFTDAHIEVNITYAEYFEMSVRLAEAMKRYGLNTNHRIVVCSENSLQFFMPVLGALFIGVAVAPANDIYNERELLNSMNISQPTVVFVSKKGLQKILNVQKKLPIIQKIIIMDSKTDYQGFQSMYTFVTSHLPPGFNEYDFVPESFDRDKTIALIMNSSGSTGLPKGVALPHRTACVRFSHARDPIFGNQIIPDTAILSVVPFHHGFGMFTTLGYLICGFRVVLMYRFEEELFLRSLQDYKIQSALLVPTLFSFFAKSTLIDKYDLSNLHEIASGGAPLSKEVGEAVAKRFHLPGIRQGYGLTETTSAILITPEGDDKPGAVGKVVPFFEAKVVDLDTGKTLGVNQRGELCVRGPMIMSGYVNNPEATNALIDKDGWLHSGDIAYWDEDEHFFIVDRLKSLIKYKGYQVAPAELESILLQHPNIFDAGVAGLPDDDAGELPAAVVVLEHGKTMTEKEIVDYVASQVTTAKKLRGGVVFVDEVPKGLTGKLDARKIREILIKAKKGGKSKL
row,SMILES,Potency
1,CC(=O)NC1(C)CN(Cc2ccc(-c3ccccc3OCc3ccccc3)s2)C1,active: 7.08 µM
2,Cc1ccc(C(=O)N2CCC(Cn3c(C)cnc3C3CCC3)CC2)cn1,inactive
3,Cc1ccc(NC(=O)Nc2ccc(C)n(CC(=O)Nc3ccc4c(c3)OCO4)c2=O)cc1,"inconclusive: 0.708 µM [inhibitor, full curve, poor fit]"
4,Cc1ccccc1C(=O)N1CCC(C(NC(=O)c2ccccc2Cl)C(=O)N2CCCCC2)CC1 (stereo not given),inactive
5,Cn1ccnc1CNc1nccc(-c2cnn(-c3ccccc3F)c2)n1,"inconclusive: 44.7 µM [inhibitor, partial curve, poor fit]"
6,CC(=O)Nc1ccc(C(=O)NC[C@@H]2C=C(C)[C@H](CC(=O)NCc3ccc(C#N)cc3)C[C@H]2C(C)C)cc1,"inconclusive: 35.5 µM [inhibitor, partial curve, poor fit]"
7,CN(C)c1ccc(-c2nnc([C@H]3CCN(Cc4ccccn4)C3)o2)cc1,"inconclusive: 63.1 µM [inhibitor, partial curve]"
8,Cc1noc([C@@H](C)NS(C)(=O)=O)c1C(=O)O,inactive
9,Cc1ccc(C(=O)NC2CCN(c3cc(-c4ccccc4)[nH]n3)CC2)s1,"inconclusive: 50.1 µM [inhibitor, partial curve]"
10,Cc1cc(NC(=O)c2ccc(CN3CC[C@H](O)C3)cc2)ccc1F,active: 0.891 µM
11,CC1(C(=O)NCC2CC2)COCc2cnc(Nc3ccccc3)nc21 (stereo not given),inactive
12,COc1cccc(-c2ccc(NC(=O)C3CCCN(C(=O)CC(F)(F)F)C3)cc2)c1 (stereo not given),"inconclusive: 44.7 µM [inhibitor, partial curve]"
13,Cc1ccc(NC(=O)N2CCc3c(C(=O)NCc4ccco4)cccc32)cc1,active: 0.0891 µM
14,CCCn1nc(C)cc1CN(C)C(=O)Cn1nc2n(c1=O)CCC(N)CC2 (stereo not given),inactive
15,Nc1ncccc1CN1CCN(C(=O)CO)CC(C(=O)O)C1 (stereo not given),inactive
16,O=C(c1ccoc1)N1CCCC(CCc2ccc(F)c(F)c2)C1 (stereo not given),"inconclusive: 50.1 µM [inhibitor, partial curve, poor fit]"
17,Cc1nc(CCC(=O)N2CCn3nc(C(=O)Nc4ccccc4)cc3C2)n[nH]1,active: 28.2 µM
18,CCOc1ccc(-c2noc(-c3nc(C)no3)n2)cc1,"inconclusive: 7.94 µM [inhibitor, full curve]"
19,COc1cccc(-c2ncc3c(n2)OCCN(c2cccc(C(F)(F)F)c2)C3=O)c1,active: 2 µM
20,Cc1noc([C@@H]2CN(Cc3cc(F)ccc3F)C[C@H]2CO)n1,inactive
21,COc1ccc(CN2C(=O)CO[C@H]3CN(Cc4ccccc4)C[C@H]32)cc1,inactive
22,CCc1ccc(S(=O)(=O)N2CCC(n3cnnc3C)CC2)cc1,inactive
23,CCOc1ccc(C2Cn3nnc(-c4nc(-c5ccc(SC)cc5)no4)c3CO2)cc1 (stereo not given),inactive

row,SMILES,Potency
1,CNC(=O)c1cccc(-c2cnc(Nc3ccc4c(c3)OCCO4)c3c2CCO3)c1,active: 5.62 µM
2,Cc1ccc(C2Cn3nnc(C(=O)N4CCC(C(=O)Nc5ccc(F)c(Cl)c5)CC4)c3CO2)cc1 (stereo not given),"inconclusive: 56.2 µM [inhibitor, partial curve]"
3,Cc1ccc2c(C(=O)NCc3ccc(Cl)cc3)cnn2c1,"inconclusive: 79.4 µM [inhibitor, partial curve]"
4,O=C(NCc1ccccn1)C1c2ccccc2CC(=O)N1Cc1ccccc1 (stereo not given),inactive
5,CCOCC1(C)COc2ccc(C(=O)Nc3ccc(F)c(Cl)c3)cc2N1 (stereo not given),"inconclusive: 79.4 µM [inhibitor, partial curve, poor fit]"
6,CC(=O)Nc1ccc(S(=O)(=O)N[C@H]2C[C@@H](c3nc(-c4ccccc4)no3)N(C)C2)cc1,"inconclusive: 50.1 µM [inhibitor, partial curve]"
7,Cc1ccc(NC(=O)c2ccc3c(c2)N(C)C2CCCN2C3=O)cc1C (stereo not given),active: 12.6 µM
8,O=C(Nc1ccc2c(c1)OCCO2)N[C@@H]1C[C@H](CO)[C@@H](O)[C@H]1O,"inconclusive: 126 µM [inhibitor, single point]"
9,CCOC(=O)C1(Cc2ccc(F)cc2)CCCN(C(=O)c2cc3nc(C)cc(C)n3n2)C1 (stereo not given),"inconclusive: 50.1 µM [inhibitor, partial curve]"
10,O=C(c1cccs1)N1CCN(c2cc(-c3cccs3)[nH]n2)CC1,inactive
11,COc1ccc(OC)c(C(O)Cn2ccn3nc(-c4ccc(C(C)C)cc4)cc3c2=O)c1 (stereo not given),"inconclusive: 17.8 µM [inhibitor, full curve]"
12,Cc1ccsc1CN(Cc1cn(-c2ccccc2)nn1)C1CC1,"inconclusive: 70.8 µM [inhibitor, single point]"
13,Cc1cccc(NC(=O)N2CCC(c3noc(-c4ccncc4)n3)C2)c1 (stereo not given),"inconclusive: 44.7 µM [inhibitor, partial curve, poor fit]"
14,COCCNC(=O)C[C@@H]1C[C@H]2O[C@H](CN(C)C)[C@@H](O)[C@H]2O1,inactive
15,O=c1cc(N2CCOCC2)oc2c(-c3ccncc3)nccc12,inactive
16,CC(=O)NC1(C)CCCN(Cc2cc(-c3cccc(N(C)C)c3)cs2)C1 (stereo not given),active: 70.8 µM
17,CNc1ccc(-c2noc([C@@H]3CCCN3Cc3ccccn3)n2)cn1,"inconclusive: 79.4 µM [inhibitor, partial curve]"
18,c1ccc2oc([C@H]3CCN(C4CCCCC4)C3)nc2c1,"inconclusive: 63.1 µM [inhibitor, partial curve, poor fit]"
19,COc1ccc(NC(=O)N2C[C@@H]3C[C@H](C2)c2ccc(NC(=O)COc4ccccc4)c(=O)n2C3)cc1,"inconclusive: 79.4 µM [inhibitor, partial curve, poor fit]"
20,O=C(c1ccnnc1)N1CC(F)(F)C[C@H]1c1nc(-c2ccccc2)no1,inactive
21,O=[N+]([O-])c1ccc(CN2C[C@H](O)C[C@H]2c2nc(-c3ccc(C(F)(F)F)cc3)no2)cc1,"inconclusive: 70.8 µM [inhibitor, full curve, poor fit]"
22,O=C(O)Cn1ccc2cc(OCc3cccc(-c4ccc(F)cc4F)c3)cnc21,active: 20 µM
